This passage reports binding signal results from article PMC12136788.

The list shows a part of the results.

The chains are these.
B1: chr1:92323927:92324037:+|CDS|ENSG00000122484|unk|FALSE|unique (ssRNA)
RNA: GGGAGUUCUACAGUCCGACGAUCAGUGCAGAGCAUUUUAAGAGAAAAUUUGCCAAAUCAAACCAAGUGUCUAGGUCAGUGUCUAGUUCAGUGCAGGUGUGUCCUGAAGUUGGAAAGAGAAACUUACUUAAAGUUUUGAAGGAGCAACAGAGGAUUGAGCAUCA
B2: ENSG00000165244:stop:overlap|stop_codon|ENSG00000165244|stop_codon|NA|stop_codon (ssRNA)
RNA: GGGAGUUCUACAGUCCGACGAUCUGCAUGGAGCCCUCGCGCUCAUAGAGCUUGCCAACCUGACUGGGGCGCCACUCCGACAGUAGCUUGGACACUGACUCUUCCACUGUACAAAAGUACUGCCCAGCAUACUUAAAAAGUAGACAACAGAGGAUUGAGCAUCA
B3: chr6:52501983:52502084:-|3pUTR|ENSG00000065308|msi1|FALSE|unique (ssRNA)
RNA: GGGAGUUCUACAGUCCGACGAUCGGCCGCCCUUGUUGAGUGUUCUUUGGAAUUGUCGUUUUUUGAGCACAACUACAGCAUUUUAGACUGCAUGAAACCAUGACUGACUGAGAGUCACUCUCUGGGUAGAUGAUAGGCGCCUUUCAACAGAGGAUUGAGCAUCA
B4: chr12:442458:442559:+|3pUTR|ENSG00000120647|unk|FALSE|unique (ssRNA)
RNA: GGGAGUUCUACAGUCCGACGAUCCCUGAGCAGAGCCUGAAUUACGUUUUUGGGCAAUUUCAUGGUGUUUCACCAGAGGGCGCUAGAGACUCAAACGAAAUGUCCAUCUGGAAAGAUUCGGGAGACACUUUGCCGAGGGGAUGACAACAGAGGAUUGAGCAUCA
B5: chr2:42282796:42282970:+|CDS|ENSG00000143924|unk|total|mutant (ssRNA)
RNA: GGGAGUUCUACAGUCCGACGAUCAUAUGGUUAUCGAGGAAAGGACUGCCGAGCUAAUGUUUACCUUCUUCCGACCGGGAAAACCGUUUAUUUCAUUGCAUCAGCCGCCGUACUAUUUAAUUAUGAGGAGAGAACUCAGCGACACAACAGAGGAUUGAGCAUCA
B6: chr16:21655520:21655610:+|3pUTR|ENSG00000197006|msi1_unk|total|mutant (ssRNA)
RNA: GGGAGUUCUACAGUCCGACGAUCUCUGUGUUCACAAUUACGUGAAGGGAGGACCCUUGGGGACCGCCAUUCUAAAUAUCAUGCCGGAAUUUAAAAAGCCAAAAUACUAAUUAUUUCUUUGCCGUGUGUAAAGGAAUGUUUUUACAACAGAGGAUUGAGCAUCA
B7: chr11:73401874:73401975:-|3pUTR|ENSG00000054965|unk|FALSE|unique (ssRNA)
RNA: GGGAGUUCUACAGUCCGACGAUCUGCAGGGUUUGUCCUUUACUUAUCUGCCCCUUUCCUAGAAAACUCCUCGUUUCUGAAAUUAGGCAUUAUAUGGUUCCAGGACCCAGCCUUCAAAAUUCCUGGCAGGCCAGCUUCAACAUUCAACAGAGGAUUGAGCAUCA
B8: chr1:40073325:40073426:-|3pUTR|ENSG00000131238|msi1|total|mutant (ssRNA)
RNA: GGGAGUUCUACAGUCCGACGAUCGAGGGAAGCCGCACCCAAAUUAAGUUGCUUAAGAGAGGAAAUGUACAUCUUGUAUAACUCCGGGAGCGAAGAAAAUGCCGGCGCGAAAGUGAAAAGUGAGGCAGCCCGUUCUUCCUAUUCCAACAGAGGAUUGAGCAUCA
B9: ENSG00000143373:stop:overlap|stop_codon|ENSG00000143373|stop_codon|NA|stop_codon (ssRNA)
RNA: GGGAGUUCUACAGUCCGACGAUCACUUCCGCACGCAUGGCAUGGCGUUCAUCAGGGCUCGGCAGGGGGCUGUUGGGGACAACUAGUCUCCAAGGCCUGGGACUGACCAGCCCCUUCCUCUUGGAGCCUGGUUUUCCCUACUGCCAACAGAGGAUUGAGCAUCA
B10: chr15:74955373:74955475:-|3pUTR|ENSG00000178718|unk|total|mutant (ssRNA)
RNA: GGGAGUUCUACAGUCCGACGAUCGGACAGUUUUCCUUUCCCGUUUUCUUUCCCCUGCUUCAGAGGAGCAUCUCUGAGGGUUCCCGCUCUUUUAACACCCCUUUUCCCCCUGCUGGCCCAGAGGGAGACCCAGGACUGAACUCUCAACAGAGGAUUGAGCAUCA
B11: chr2:224470697:224470798:-|3pUTR|ENSG00000036257|msi1|FALSE|bound_elsewhere (ssRNA)
RNA: GGGAGUUCUACAGUCCGACGAUCUGUGACAAACUAAAGUUAAUACAUGAAGCAUUGCAAUAUGGAAUUUUGCACAUUUUUGUUAGCUUUACAUUAUUUGCUGAUACCAACUUUUGGUAGGAAGGAAAACAGGGAAGGUGAUUGCAACAGAGGAUUGAGCAUCA
B12: ENSG00000155189:stop:overlap|stop_codon|ENSG00000155189|stop_codon|NA|stop_codon (ssRNA)
RNA: GGGAGUUCUACAGUCCGACGAUCAUGUGAACACCUGGAUAUAUGGAACCCUACUUGGCUGCCUGUGGGUUACUAUUAAAGCAUAGACAAGUAGCUGUCUCCAGACAGUGGGAUGUGCUACAUUGUCUAUUUUUGGCGGCUGCACAACAGAGGAUUGAGCAUCA
B13: ENSG00000164054:stop:overlap|stop_codon|ENSG00000164054|stop_codon|NA|stop_codon (ssRNA)
RNA: GGGAGUUCUACAGUCCGACGAUCCAGGAUUUGAGCUGGGACAACAAGGAGGAGACAGUGCGGAACAAGCUCCCAGAGGGGCAUAGGAGGAGGAGUGGCUUCCUGGGGUUGUGGCAGCAGGGAGGUGACUGGGGCCAGCUCAGACAACAGAGGAUUGAGCAUCA
B14: chr2:205796522:205796663:+|3pUTR|ENSG00000118257|msi1|total|mutant (ssRNA)
RNA: GGGAGUUCUACAGUCCGACGAUCGUUUUUAUUAAGUGCCUUGAAAAAAUGAAGAAAAAUGUAUUUUCCCUUUAUGUAAAAAUCCGUGAAUAUCUUAUGAAUUAAGGCAUUCCUCUUUCCCUAACCCCGAUGGCUCCAUUCCCACAACAGAGGAUUGAGCAUCA
B15: ENSG00000124766:be:win_1551|3pUTR|ENSG00000124766|bound_else_gene|NA|bound_elsewhere_windowed (ssRNA)
RNA: GGGAGUUCUACAGUCCGACGAUCCAGGGCUGGCUUCGCCCGCGUUCUCGUCGUCGGAUCAAGGAGCGCGGCGGCGUUUUGGACCCGCGCUCCCAUCCCCCACCUUCCCGGGCCGGGGACCCACUCUGCCCAGCCGGAGGGACGCAACAGAGGAUUGAGCAUCA
B16: chr6:73594753:73594854:-|3pUTR|ENSG00000119899|unk|total|mutant (ssRNA)
RNA: GGGAGUUCUACAGUCCGACGAUCGGUUCACAUACCUGCCUGCCCGUCGGGCAACAUGAAGCCGGACAGUUCUGUUGAUUUUUCCGGGCCAUACUAAAGGGAAUGAGCUGAAACAGACCUCCUGAUACCUUUGCUUAAUUAAACCAACAGAGGAUUGAGCAUCA
B17: ENSG00000107863:be:win_3601|CDS|ENSG00000107863|bound_else_gene|NA|bound_elsewhere_windowed (ssRNA)
RNA: GGGAGUUCUACAGUCCGACGAUCAAGGGAAUGGCUGAUAUUGAUAUACAAGAUGAUAAAUGGCGAGAUUUGAAUGUGAUAAGCAGUUUACUAAAAUCCUUCUUCAGAAAACUCCCUGAGCCUCUCUUCACAAAUGAUAAAUAUCAACAGAGGAUUGAGCAUCA
B18: chr17:63832812:63832858:-|3pUTR|ENSG00000108604|msi1_unk|FALSE|overlapping (ssRNA)
RNA: GGGAGUUCUACAGUCCGACGAUCCCAGCCCUGGAGCCUGGAGGGAGACCACCCUCUGGGUCCUUGCUGGGGCCGCAGACACGUAGGCUGGGGUGAGGAGUGUCUGCUGUCACCCUCUACUCUCCAGCUUUAGUCUUAUAAAUGCAACAGAGGAUUGAGCAUCA
B19: chr3:160434497:160434598:+|3pUTR|ENSG00000113810|msi1|total|mutant (ssRNA)
RNA: GGGAGUUCUACAGUCCGACGAUCUUUAUGACCGGUUUAUCCGGGUACUAAAUGCAUUUCAACUUGACCGUUUCAACUUAUGACCGGUUUACCAGGAUGCCGUCCCACUGUUGAGGAGCAUCUAUUCCGGGGUUAAUUACUUUACAACAGAGGAUUGAGCAUCA
B20: chr16:20924479:20924582:+|3pUTR|ENSG00000102897|unk|total|mutant (ssRNA)
RNA: GGGAGUUCUACAGUCCGACGAUCCUACUAUAAAACUAUGUACCACUCUCAGAAUAUUCUCCGGCUUUUUUUUUUUCAAGUUACCGAUUUGCUUAAAGUGAGGUUUUUUGGUGUGUGCUUUUUUGUUGUCUUUUGACCCUUCCACAACAGAGGAUUGAGCAUCA
B21: chr11:62841694:62841860:-|5pUTR|ENSG00000133316|unk|total|mutant (ssRNA)
RNA: GGGAGUUCUACAGUCCGACGAUCGCCGCCGAGGCGACCGAAGUAAAGGUAUCGCUUCUCGGCCUUUUGGCUAAGAUCAAGUGCCGUAUCUGUUCUUAUCAGUUUAAUAUCUGAUACGUCCUCUAUCCGAGGACAAUAUAUUAACAACAGAGGAUUGAGCAUCA
B22: chr19:48382969:48383148:-|3pUTR|ENSG00000105438|msi1_unk|total|mutant (ssRNA)
RNA: GGGAGUUCUACAGUCCGACGAUCACUUGGGCUGUUUGCCGUUUUUUGCCUUUCCGACAAGAAAAAAAAAUCUUUCCACUCUUCCGUUUUUGAUUCUGAUGACUCGUUUUUCUUCUACUCUGUGGCCCCAAUUUUUAUAAAGUGCAACAGAGGAUUGAGCAUCA

For this experiment, the target named is MSI1 full-length (mouse, UniProt Q61474 1-362). Description: nsRBNS (natural sequence RNA bind-n-seq); RBNS binding buffer (assumed for nsRBNS): 25 mM Tris pH 7.5, 150 mM KCl, 3 mM MgCl2, 0.01% Triton X-100, 500 ug/ml BSA, 20 U/ml SUPERase-In, 4 C; UNK is unkempt and MSI1 is Musashi-1; names of the RNAs are library labels; protein concentration not given here; high values mean tight binding.
UniProt Q61474, sequence (Q61474 whole entry): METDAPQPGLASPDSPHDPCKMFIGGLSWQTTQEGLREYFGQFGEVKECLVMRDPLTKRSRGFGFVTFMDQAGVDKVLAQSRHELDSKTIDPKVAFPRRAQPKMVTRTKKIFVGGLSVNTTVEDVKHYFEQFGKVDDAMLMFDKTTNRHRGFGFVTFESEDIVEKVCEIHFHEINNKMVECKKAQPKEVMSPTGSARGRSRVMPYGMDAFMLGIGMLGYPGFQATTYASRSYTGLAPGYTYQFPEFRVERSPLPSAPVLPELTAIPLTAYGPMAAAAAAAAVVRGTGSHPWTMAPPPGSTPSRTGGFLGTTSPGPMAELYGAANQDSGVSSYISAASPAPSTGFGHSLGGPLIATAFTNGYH
Molecule B1 returned a binding signal of 0.428 enrichment R.

As to B2, the binding signal came to 0.91 enrichment R.

In turn, B3 displayed a binding signal of 0.461 enrichment R.

In turn, B4 showed a binding signal of 0.338 enrichment R.

With B5, the binding signal worked out at 0.813 enrichment R.

Regarding B6, the binding signal came to 0.282 enrichment R.

Consider B7, for which the binding signal turned out to be 0.544 enrichment R.

In turn, B8 gave a binding signal of 0.343 enrichment R.

In turn, B9 gave a binding signal of 0.346 enrichment R.

Take B10: the binding signal is 0.626 enrichment R.

As to B11, the binding signal worked out at 0.331 enrichment R.

Molecule B12 showed a binding signal of 0.332 enrichment R.

As to B13, the binding signal is 0.519 enrichment R.

Molecule B14 had a binding signal of 0.359 enrichment R.

On to B15, for which the binding signal is 0.518 enrichment R.

Regarding B16, the binding signal worked out at 0.462 enrichment R.

In turn, B17 yielded a binding signal of 0.64 enrichment R.

Molecule B18 gave a binding signal of 0.385 enrichment R.

B19 showed a binding signal of 0.282 enrichment R.

Molecule B20 showed a binding signal of 0.961 enrichment R.

As for B21, the binding signal amounted to 0.194 enrichment R.

The molecule B22 returned a binding signal of 0.578 enrichment R.
